Data reported in ChEMBL document CHEMBL1157539, “Thousands of chemical starting points for antimalarial lead identification” (Nature, 2010).
In all, about 13,000 compounds were measured (“IFI”: median about 4, highest 2% from about 17 on). This is one part of the list.

Assay: GSK_TCMDC: Inhibition Frequency Index (IFI). The number of non-kinase HTS assays where a compound showed > 50 % inhibition, expressed as a percentage of the number of such assays in which the compound was tested (-0 is zero)
Assay type: functional

Compound | IFI [%]
Cc1[nH]c(C)c(-c2ccc(C#Cc3ccc(F)cc3F)cc2)c(=O)c1Br | 2.7
Cc1cccc2nc(-c3cccc(-c4cccc(NC(=O)C(C)CN(C)C)c4)c3)[nH]c12 (configuration not stated) | 3.6
Cc1cccc2nc(-c3ccc(-c4ccc(CN5CCC(CCN6CCCCC6)CC5)cc4)cc3)[nH]c12 | 6.85
CC(C)(C)c1ccc(OC(=O)c2ccc(NC(=O)N[C@@H](Cc3ccc(O)cc3)C(=O)NC3CCN(Cc4ccc(O)cc4)C3)cc2)cc1 (some centres not stated) | 8.16
Cn1c(=N)n(CC(=O)N2CCc3ccc(Cl)cc3C2Cc2ccc(Cl)c(Cl)c2)c2ccccc21 (configuration not stated) | 11.2
O=C(NCc1cccc2ccccc12)C(c1cc2ccccc2o1)N1CCN(C(c2ccccc2)c2ccccc2)CC1 (configuration not stated) | 1.45
COc1ccc(C(=O)CCC(=O)N(Cc2ccc(-c3ccc(CNCCc4ccc(S(C)(=O)=O)cc4)cn3)cc2)C(C)CN(C)C)cc1F (configuration not stated) | 4.17
COc1ccc2nccc([C@@H](O)CN3CCC(NCc4ccc5c(c4)N(C)C(=O)CO5)CC3)c2c1 | 0.74
COc1ccc2nccc([C@@H](O)CN3CCC(NC(=O)/C=C/c4ccnc5ccccc45)CC3)c2c1 | 1.47
Fc1ccc2[nH]c3c(NCCCN4CCOCC4)ncnc3c2c1 | 0
Cc1cccc2nc(-c3ccc(-c4cccc(NC(=O)C(C)CN5CCN(C)CC5)c4)cc3)[nH]c12 (configuration not stated) | 4.63
Cc1[nH]c(C)c(-c2ccc(Oc3ccc(Cl)cc3)cc2)c(=O)c1C | 11.6
CN1CCCC(CN2CCN(Cc3cccc(-c4csc(-c5nc6ccccc6[nH]5)c4)c3)CC2)C1 (configuration not stated) | 5.63
Cc1cc(NC(=O)c2ccsc2)ccc1OC1CCN(Cc2ccc(F)cc2)CC1 | 1.61
CN1CCN(Cc2cc(NC(=O)c3ccc(-c4ccc(Cl)cc4Cl)cc3)ccc2-c2ccccc2)CC1 | 7.27
CCN1CCC(N(Cc2ccc(-c3ccc(C(F)(F)F)cc3)cc2)C(=O)Cn2c(CCc3cccc(F)c3F)cc(=O)c3cn(C)nc32)CC1 | 5.67
COc1cc2nc(N3CCC(CNC(=O)/C=C/c4ccccc4F)CC3)nc(N)c2cc1OC | 3.51
O=C(O)c1ccc(-c2cnc3ccc(NC4CCC(O)CC4)nn23)cc1 (configuration not stated) | 1.53
CC1CN(S(=O)(=O)c2ccc(NC(=O)c3cc(-c4ccccc4O)n[nH]3)cc2)CC(C)O1 (configuration not stated) | 4.41
COc1ccc(CNCCCCCNCc2ccc(Cl)c(Cl)c2)cc1Cl | 7.09
CC[C@]1(C)C[C@@H](NC(=O)NC(=O)c2ccc(OC)cc2)[C@]2(C)[C@H](C)CC[C@]3(CCC(=O)[C@H]32)[C@@H](C)[C@@H]1OC(=O)NC(=O)c1ccc(OC)cc1 | 0
CS(=O)(=O)CCNC(=O)c1ccc(-c2cc3c(Nc4ccc5c(cnn5Cc5ccccc5)c4)ncnc3cn2)o1 | 1.42
